This is an account of results in the supplement of paper PMC11417369.

± gives the standard deviation of the averaged measurements. This is one part of the list.

The experiment deals with PfAP2-G AP2 domain (GST-tagged). In words: gcPBM binding intensity (ln(normalized median fluorescence intensity)); higher = stronger DNA binding. In outline:
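An Agilent 4 × 180k array carrying primer-extended double-stranded 36-bp intergenic genomic probes and negative controls received GST-tagged P. falciparum DNA-binding domains expressed in E. coli, about 25 μg on average, for 1 h. The binding buffer contained 1× PBS, 1% milk, 0.2 mg/ml BSA, 0.5% salmon testes DNA and 0.03% Triton X-100. Binding intensity is the top Masliner-normalised natural-log median intensity across replicate spots of either probe orientation, read after Alexa488 anti-GST antibody staining and a 488 nm scan.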
With “CTTTTTGAAATATTAACACACATTTTGTTAATTAAT [CACACA_site4046]”, the “gcPBM binding intensity (ln)” value was determined as 9.72 ± 0.085.
Next, “CACAGATAAATTAACACACACACACCCATATATATA [CACACA_site3960]”: 10 ± 0.14; “CTATATTATAAATATACACACATATCTTAAGTATAA [CACACA_site3096]”: 10.2 ± 0.23.
On to “TTGATGTATACAATGTAGATTATTTAATATTTCAAC [CACACA_negctrl_site73]”, for which the “gcPBM binding intensity (ln)” value was 9.875 ± 0.007.
With “ATTAGTATTAGATGATGTACATTTATATTGAAATAT [XGTACX_site8537]” the figure was 11.1 ± 0.56.
With “TTTTTTTTTTTTTTCACACACTAATAATATTATCAT [CACACA_site4417]” the figure was 9.71 ± 0.22; with “ATAAATTTTTAAAAATATGAATTATGTAATTTGTGA [CACACA_negctrl_site1621]”, 9.9 ± 0.071; with “AAAAGGAAGATATATACACACATACAAATATATATA [CACACA_site5236]”, 9.765 ± 0.064.
Next, CTATTTGGGGGAAGAGTGCATGACATGAATATAAAA: 10.8 ± 0.61.
As to “TGTTATTTAAATAATTCTTTTTAAAAGATGAATTAT [CACACA_negctrl_site1226]”, the “gcPBM binding intensity (ln)” value is 9.85 ± 0.28.
With “ATGGTCTGTTAAAGATGTACTTTTTAAAAATAAACG [XGTACX_site2583]” the figure was 11.4 ± 0.88.
Regarding “ATAAAAATACAGTTAACACACATGTGTATTTATATG [CACACA_site7727]”, the “gcPBM binding intensity (ln)” value stood at 10.4 ± 0.26.
Next, “GAAAACGTTTGAAGTTGTACATATGTATAAAAAGAA [XGTACX_site2304]”: 11.3 ± 0.89; “AATAGGAAAGATTTTGCATGTGATATAAGTAATTTT [TGCATGCA_site657]”: 9.87; “TATAATATTTATATAACACACATATAGATTTATTTA [CACACA_site6269]”: 9.79 ± 0.028.
Next, “CATATAATAAATAGATGTACAGACTATATATATATA [XGTACX_site6575]”: 11.1 ± 0.61.
With “TTTATATGATACACACGTACATATACACATATACAC [XGTACX_site8123]” the figure was 11.3 ± 0.67; with “TATATATATATTTTTGCACACATTTTTTAAGGTACA [CACACA_site2145]”, 10.8 ± 0.45.
Consider “TATATTAAAGGGGTTTCACACACATGTATAATTAAT [CACACA_site7950]”, for which the “gcPBM binding intensity (ln)” value came out at 10.11 ± 0.092.
With “TATTATTTAATCAAATGTACATAGAAAATGTATGTA [XGTACX_site4433]” the figure was 10.9 ± 0.55.
For “ATGTAAAATTAATATTGTACTTTTCCATCATGATAC [XGTACX_site2669]”, the “gcPBM binding intensity (ln)” value was found to be 11.3 ± 0.79.
With “AAAAAGAAGAATAATACACACAAATTATTTTATATA [CACACA_site1919]” the figure was 9.84 ± 0.057; with “TATTCCAAAAATGTGTGTACATAAATACAATATTAT [XGTACX_site2653]”, 11.4 ± 0.89; with “TATAATAAATGGACGGTGCGACATGACCATATGTGT [GTGCAC_site9476]”, 11 ± 0.53.
With “TTGTTAATAAAAATATTGGAAAGTTTATAAAATTTT [CACACA_negctrl_site1487]” the figure was 9.775 ± 0.092; with “TTATTTTCTTTTTCTTGTACACACATAATATGGATG [XGTACX_site1481]”, 11.3 ± 0.68.
Turning to “ATAATATATATACAAACACACAATTGCGTCCACATT [CACACA_site8515]”, the “gcPBM binding intensity (ln)” value is 11.5 ± 0.86.
Next, “GACACCCATAAATATACACACGCACAACACAAAATA [CACACA_site8944]”: 10.4 ± 0.29.
With “CTTACCAAAAAACACACACACACAAAATATATAAAT [CACACA_site1870]” the figure was 10.1 ± 0.17.
With “TTATTTTTTAGTAGTACACACTTTTTGTACCTTTTA [CACACA_site4503]” the figure was 11.8 ± 1.1; with “AATAAAAAAAAAAAAAAAAAAAAAAAGACACTAAAA [CACACA_negctrl_site1075]”, 9.875 ± 0.035; with “CTAAAAGAACATGTGTGTACTTATGTTCTCTTTTTT [XGTACX_site5983]”, 11.4 ± 0.74.
Turning to “ATGAAATTTTCATATTGTACTATTAAAAATATATTT [XGTACX_site1989]”, the “gcPBM binding intensity (ln)” value turned out to be 11 ± 0.63.
With “CATTGACCATTAATTTGTACACAAGGGGAAATGAGG [XGTACX_site1756]” the figure was 11.5 ± 0.97; with “TATATATATATATATATATATATATATATATATATT [CACACA_negctrl_site1440]”, 9.73 ± 0.62; with “TCTTTCTGCTCTTATACACACAAATAAAGATTTTTT [CACACA_site2700]”, 10.2.
Next, “TTTGCTTCGATATATTCACACATTTTTTTTCTTATT [CACACA_site4499]”: 9.85 ± 0.23; “AAATGTAATAAATATACACACACAAATATATATATA [CACACA_site8754]”: 9.71 ± 0.071.
With “AATTTCATTTTTAGAAGTACATTTATATTAAAAATC [XGTACX_site2888]” the figure was 11.2 ± 0.95; with “TGTAGATTTTGTAACACACACATATAAATACAGATA [CACACA_site5343]”, 10.2 ± 0.16; with “TAAGGGATATGTATATGTACATACAAATATATATAA [XGTACX_site2892]”, 11.1 ± 0.66.
For the sequence “ATATAAATAAAAAAAAGTACATAATATATAAAAATA [XGTACX_site3065]”, the “gcPBM binding intensity (ln)” value stood at 11.5 ± 1.
In the case of “CTTTTACGTTTAGGATGTACATTTAAAAAAAAAGAA [XGTACX_site8032]”, the “gcPBM binding intensity (ln)” value was determined as 11.2 ± 0.78.
Next, “TAAGATCCTTAAAACGCATGCAGTATTTTTATTTCT [TGCATGCA_site532]”: 9.56 ± 0.22; “TAGCCAAAAGGATATGCACACACACCCACATATATA [CACACA_site8684]”: 10.2 ± 0.26; “CATATAATTATTTTCACACATATAACTACATCTATA [CACACA_site5915]”: 9.935 ± 0.064.
Next, “TTAGCAGGACGTTTGGTGCACGTACTGTTTTTCTTT [GTGCAC_site9856]”: 11.1 ± 0.67; “ATTATAAGAATTAAAAGAAACAAAATTTTAATTATA [CACACA_negctrl_site610]”: 9.65 ± 0.13; “AATAAATATTAAATGACAAAAAAAAAAAAAAAAGGG [XGTACX_negctrl_site15]”: 10.4 ± 0.41.
Next, “TATAATCCATAAGAAGCACACACATATATATATATT [CACACA_site8394]”: 9.93 ± 0.16.
Consider “TTAAGATGCATAAATACATGCAAAGTAAATAATTCT [TGCATGCA_site517]”, for which the “gcPBM binding intensity (ln)” value was found to be 9.88 ± 0.014.
Next, “TTTATTCTCCACACCCGTACACATTTTTTTTGCATA [XGTACX_site5615]”: 11.4 ± 0.84; “AAAAAAAAAAAAAACACACACACACGCAGATATATA [CACACA_site6672]”: 10.2 ± 0.21; “ATTATAGACAACTCTTTTTCTAAACTATTTTATTTT [CACACA_negctrl_site1754]”: 9.985 ± 0.021.
Next, “CATAATATTTGTGAAAGTACTTATTTTACAATAGGG [XGTACX_site5004]”: 11.3 ± 0.75; “AAATAAAGAAATATATGTACATATATATATATATAT [XGTACX_site5131]”: 11.3 ± 0.43; “TTTCTTAAAATATAAAGTACTAAAATGAAAATATAT [XGTACX_site2173]”: 11.1 ± 0.75.
Take “AAAAAATATAAAACGAGTACATATATAATAAGCAAA [XGTACX_site1360]”: the “gcPBM binding intensity (ln)” value came to 11.4 ± 0.82.
Consider “CTTCTTTTGTGATAAAGTACAAATATTTTGAAATAT [XGTACX_site1156]”, for which the “gcPBM binding intensity (ln)” value was determined as 10.9 ± 0.59.
Next, “TTTTCTATAAGATTTGCACACAACTTATTCTATTAA [CACACA_site3752]”: 10 ± 0.11; “ATAAATAAATAAATAAATATATATATGAAATAATGT [TGCATGCA_negctrl_site12]”: 9.725 ± 0.064; “ATTTTTTTTATGTATTATGCTTTTATATCCTTCATA [CACACA_negctrl_site1244]”: 9.91 ± 0.042.
With “ATTTCTTTTACATTTACATGCAATGCTCTATAGATA [TGCATGCA_site62]” the figure was 9.955 ± 0.035; with “AAAGAATTTGCATATACACACAAAAAAATAAATACA [CACACA_site4373]”, 10.2.
Next, “TACACAGACGGACACACACACACACTAGAAAAAAAA [CACACA_site4435]”: 11.7 ± 1.2; “ATATATATATACATATGTACATATATATTTATACAT [XGTACX_site2463]”: 11 ± 0.58; “AGTATAAATATATTATGTACATATATATTATACTTA [XGTACX_site2623]”: 11.2 ± 0.59.
“TTATATACATTAAATGAACACACATAAATAAATTAC [CACACA_site8927]”: the “gcPBM binding intensity (ln)” value was 10.1 ± 0.11.
Next, “AATATAATATAATGCACACATAAAAAAAAAAAAATC [CACACA_site1303]”: 10.2 ± 0.43; “AATGCACTATTTAAAAGTACACATAAGAAAAGCATA [XGTACX_site1739]”: 11.5 ± 0.96.
With “GCTAAACAATAGTTTGCACACAATTTAAATATATAT [CACACA_site193]” the figure was 10.03 ± 0.071; with “AAATTATTATATATATGTACGTATAATGTATTTTGT [XGTACX_site2903]”, 11.5 ± 1.1.
Next, AAATATAGAATACATGTGCACATAATATATATATAT: 10.5 ± 0.28; “TTTTTTGTATTTTTCACACACACATAAGTAAACAAT [CACACA_site1900]”: 10.4 ± 0.35; “TATTATGTATGTATATGTACGTATCTTATTTTATTT [XGTACX_site5008]”: 11.3 ± 0.76.
For “AATACAATTTATAACACACACACAAGAATACCTATA [CACACA_site6705]”, the “gcPBM binding intensity (ln)” value was found to be 10.2 ± 0.11.
With “TCTTTTTAAGGGATTTTTTTTTTTTTTTTAAAAAGA [CACACA_negctrl_site1274]” the figure was 10 ± 0.27; with “TTTGTATCTATATATTGTACGAATTACTTTCATTTA [XGTACX_site4785]”, 11.1 ± 0.5; with “AAAAAAAAAAATTAAAGTACAAAAATATTAAAAATA [XGTACX_site6517]”, 11 ± 0.51.
Take “AAATGTAAATTTATCCGTACATATATATATTTATAT [XGTACX_site7024]”: the “gcPBM binding intensity (ln)” value was 11 ± 0.68.
With “AAAAAAAAAAAAATATATATATATATATATATATAT [GTGCAC_negctrl_site212]” the figure was 9.76 ± 0.54; with “AAAAAAAATTTCTTCACACATAAATAAATAAATAAA [CACACA_site4841]”, 9.7 ± 0.014; with “ATAAACATGGAAATGTATTAAAAGCAAGTATATAAA [XGTACX_negctrl_site516]”, 10.105 ± 0.007.
Take “TGTTGTTACAGATATACACACATATATATATTATAT [CACACA_site5342]”: the “gcPBM binding intensity (ln)” value is 10.1 ± 0.15.
Next, “TTGGGTGCATATATTTGTACACATTATTTCTATTTT [XGTACX_site3688]”: 11.4 ± 1.
Next, “TAAATTATAACGTGCACACATATTTAAAATGAAATG [CACACA_site2820]”: 10.6 ± 0.45; “ATTAAAAATTCAATTGCACACGCACATATTTTAATA [CACACA_site8618]”: 10.1 ± 0.23; “ATGTAATAAAATAATTGTACAATGTAACTAATTTTT [XGTACX_site2871]”: 10.8 ± 0.44.
